Measurements published in patent publication US11789019B2 (priority 2014, dated 2023).

Test system: 1807 T cells
Test: Stimulation of 1807 T cells in vitro (BMDC co-culture; IFN-γ ELISA, CD44/CD62L)
Conditions: for activation of 1807 T cells (reduced CD62L, increased CD44): three days, flow cytometry

LVVKNPAAHHAIS (Blastomyces dermatitidis of strains 26199, 18808, Er-3, 14081; Histoplasma capsulatum of strains G186AR, Nam1, H88, H143; Aspergillus sp.1 of strain group.1; Arthroderma; listed as Ajellomyces capsulatus, listed as Ajellomyces dermatitidis, listed as Arthroderma benhamiae) [Peptide #1]
IFN-γ production by 1807 T cells (supernatants after 72 hours, ELISA): concentration-dependent manner
activation of 1807 T cells (reduced CD62L, increased CD44): activated

ovalbumin (OT-II) peptide: irrelevant control peptide (ISQAVHAAHAEINEAGR) [reference compound]
activation of 1807 T cells (reduced CD62L, increased CD44): did not activate
